Assay results published in article PMC9911399, “Two distinct binding modes provide the RNA-binding protein RbFox with extraordinary sequence specificity”.
Positions count from the first letter of the chain named. The list shows a part of the results.

T1: RBFOX1 RRM (Homo sapiens, UniProt Q9NWB1 109-208)
T1 sequence: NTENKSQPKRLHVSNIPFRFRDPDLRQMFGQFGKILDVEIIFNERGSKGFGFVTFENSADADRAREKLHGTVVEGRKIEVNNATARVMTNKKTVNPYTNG

B1: UAUAGGC (DNA:RNA)
RNA: GGGAGACCGGAAUUCAGAUUGUCCUAUAGGCUUAAAUCCCGUCGUAGCCACCA
DNA 1: CAATCTGAATTCCGGTCTCCC
DNA 2: TGGTGGCTACGACGGGATT
B2: UUCCCGC (DNA:RNA)
RNA: B1 RNA with A26U, U27C, A28C, G29C
DNA 1: CAATCTGAATTCCGGTCTCCC
DNA 2: TGGTGGCTACGACGGGATT
B3: UCUAGUA (DNA:RNA)
RNA: B1 RNA with A26C, G30U, C31A
DNA 1: CAATCTGAATTCCGGTCTCCC
DNA 2: TGGTGGCTACGACGGGATT
B4: UACCAAU (DNA:RNA)
RNA: B1 RNA with U27C, A28C, G29A, G30A, C31U
DNA 1: CAATCTGAATTCCGGTCTCCC
DNA 2: TGGTGGCTACGACGGGATT
B5: CCGGCGG (DNA:RNA)
RNA: B1 RNA with U25C, A26C, U27G, A28G, G29C, C31G
DNA 1: CAATCTGAATTCCGGTCTCCC
DNA 2: TGGTGGCTACGACGGGATT
B6: GAGUAAU (DNA:RNA)
RNA: B1 RNA with U25G, U27G, A28U, G29A, G30A, C31U
DNA 1: CAATCTGAATTCCGGTCTCCC
DNA 2: TGGTGGCTACGACGGGATT
B7: UCUAAUG (DNA:RNA)
RNA: B1 RNA with A26C, G29A, G30U, C31G
DNA 1: CAATCTGAATTCCGGTCTCCC
DNA 2: TGGTGGCTACGACGGGATT
B8: CGAGCCG (DNA:RNA)
RNA: GGGAGACCGGAAUUCAGAUUGUCCCGAGCCGUUAAAUCCCGUCGUAGCCACCA
DNA 1: CAATCTGAATTCCGGTCTCCC
DNA 2: TGGTGGCTACGACGGGATT
B9: CUGAUUG (DNA:RNA)
RNA: B8 RNA with G26U, A27G, G28A, C29U, C30U
DNA 1: CAATCTGAATTCCGGTCTCCC
DNA 2: TGGTGGCTACGACGGGATT
B10: CUUCCGU (DNA:RNA)
RNA: B8 RNA with G26U, A27U, G28C, C30G, G31U
DNA 1: CAATCTGAATTCCGGTCTCCC
DNA 2: TGGTGGCTACGACGGGATT
B11: CUGCCCC (DNA:RNA)
RNA: B8 RNA with G26U, A27G, G28C, G31C
DNA 1: CAATCTGAATTCCGGTCTCCC
DNA 2: TGGTGGCTACGACGGGATT
B12: UGGAGGG (DNA:RNA)
RNA: B1 RNA with A26G, U27G, C31G
DNA 1: CAATCTGAATTCCGGTCTCCC
DNA 2: TGGTGGCTACGACGGGATT
B13: UUCAUCG (DNA:RNA)
RNA: B8 RNA with C25U, G26U, A27C, G28A, C29U
DNA 1: CAATCTGAATTCCGGTCTCCC
DNA 2: TGGTGGCTACGACGGGATT
B14: CCCUUUU (DNA:RNA)
RNA: B8 RNA with G26C, A27C, G28U, C29U, C30U, G31U
DNA 1: CAATCTGAATTCCGGTCTCCC
DNA 2: TGGTGGCTACGACGGGATT
B15: GAUGCAC (DNA:RNA)
RNA: B1 RNA with U25G, A28G, G29C, G30A
DNA 1: CAATCTGAATTCCGGTCTCCC
DNA 2: TGGTGGCTACGACGGGATT
B16: CAUACUC (DNA:RNA)
RNA: B1 RNA with U25C, G29C, G30U
DNA 1: CAATCTGAATTCCGGTCTCCC
DNA 2: TGGTGGCTACGACGGGATT
B17: CGUCGGG (DNA:RNA)
RNA: B8 RNA with A27U, G28C, C29G, C30G
DNA 1: CAATCTGAATTCCGGTCTCCC
DNA 2: TGGTGGCTACGACGGGATT
B18: CACACGC (DNA:RNA)
RNA: B1 RNA with U25C, U27C, G29C
DNA 1: CAATCTGAATTCCGGTCTCCC
DNA 2: TGGTGGCTACGACGGGATT
B19: GGUAGAG (DNA:RNA)
RNA: B1 RNA with U25G, A26G, G30A, C31G
DNA 1: CAATCTGAATTCCGGTCTCCC
DNA 2: TGGTGGCTACGACGGGATT
B20: AGGGGCC (DNA:RNA)
RNA: B8 RNA with C25A, A27G, C29G, G31C
DNA 1: CAATCTGAATTCCGGTCTCCC
DNA 2: TGGTGGCTACGACGGGATT

target: T1, RBFOX1 RRM; experiment: EMSA; HiTS-Eq, 1 nM pool, 10 min; buffer printed only for the single-RNA assays: 10 mM Tris pH 7.5, 150 mM NaCl, 3.4 mM EDTA, 0.001% NP-40, 30 C; conditions: tags: His6 N-terminal (pET28a); label: 5' 32P
How it was run: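 Purified RbFox RRM, wild type or mutant, was incubated for 10 min in 50 µL with 1 nM of a 5′-radiolabelled RNA pool carrying 7 randomized nucleotides, whose flanks were annealed to DNA oligonucleotides, over a series of increasing protein concentrations. Unbound RNA was resolved on 8% native PAGE, cut out, reverse-transcribed, barcoded by PCR and sequenced on an Illumina HiSeq 2500. Relative association constants were derived from changes in read counts for each RNA species versus the control reaction and normalised to the cognate motif.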

Question: B1 was tested. Which binding signal did it give?
Answer: The binding signal was 0.00986 KA relative to UGCAUGU.

Question: For B2, which binding signal is on record?
Answer: The binding signal was 0.0116 KA relative to UGCAUGU.

Question: B3 was tested. Which binding signal did it give?
Answer: The binding signal was 0.00831 KA relative to UGCAUGU.

Question: With B4 as the binder, how does the binding signal read?
Answer: Its binding signal is 0.000848 KA relative to UGCAUGU.

Question: For B5, which binding signal is on record?
Answer: The binding signal was 0.0143 KA relative to UGCAUGU.

Question: How did the binding signal turn out when B6 was run?
Answer: The binding signal was 0.00941 KA relative to UGCAUGU.

Question: For B7, which binding signal is on record?
Answer: The binding signal was 0.0118 KA relative to UGCAUGU.

Question: Which binding signal does the source give for B8 here?
Answer: Its binding signal is 0.00714 KA relative to UGCAUGU.

Question: For B9, which binding signal is on record?
Answer: The binding signal was 0.0256 KA relative to UGCAUGU.

Question: For B10, which binding signal is on record?
Answer: Its binding signal is 0.00587 KA relative to UGCAUGU.

Question: With B11 as the binder, how does the binding signal read?
Answer: The binding signal was 0.00906 KA relative to UGCAUGU.

Question: Which binding signal does the source give for B12 here?
Answer: The binding signal was 0.0152 KA relative to UGCAUGU.

Question: With B13 as the binder, how does the binding signal read?
Answer: Its binding signal is 0.00625 KA relative to UGCAUGU.

Question: How did the binding signal turn out when B14 was run?
Answer: The binding signal was 0.00372 KA relative to UGCAUGU.

Question: With B15 as the binder, how does the binding signal read?
Answer: The binding signal was 0.0171 KA relative to UGCAUGU.

Question: With B16 as the binder, how does the binding signal read?
Answer: Its binding signal is 0.00303 KA relative to UGCAUGU.

Question: For B17, which binding signal is on record?
Answer: The binding signal was 0.00432 KA relative to UGCAUGU.

Question: Which binding signal does the source give for B18 here?
Answer: Its binding signal is 0.00179 KA relative to UGCAUGU.

Question: With B19 as the binder, how does the binding signal read?
Answer: Its binding signal is 0.0104 KA relative to UGCAUGU.

Question: Which binding signal does the source give for B20 here?
Answer: Its binding signal is 0.0237 KA relative to UGCAUGU.
